The structures appear in SMILES notation. The whole screen tested about 310,000 compounds, of which about 14,000 (4.5%) showed an effect of 50% or more. The effect is printed as a negative number. The list shows a part of the results.
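Further: peak tail current of the secondary pulse compared with the same well before compound.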

Sequence of human ether-à-go-go-related gene (hERG) potassium channel (Q12809 whole entry, looked up): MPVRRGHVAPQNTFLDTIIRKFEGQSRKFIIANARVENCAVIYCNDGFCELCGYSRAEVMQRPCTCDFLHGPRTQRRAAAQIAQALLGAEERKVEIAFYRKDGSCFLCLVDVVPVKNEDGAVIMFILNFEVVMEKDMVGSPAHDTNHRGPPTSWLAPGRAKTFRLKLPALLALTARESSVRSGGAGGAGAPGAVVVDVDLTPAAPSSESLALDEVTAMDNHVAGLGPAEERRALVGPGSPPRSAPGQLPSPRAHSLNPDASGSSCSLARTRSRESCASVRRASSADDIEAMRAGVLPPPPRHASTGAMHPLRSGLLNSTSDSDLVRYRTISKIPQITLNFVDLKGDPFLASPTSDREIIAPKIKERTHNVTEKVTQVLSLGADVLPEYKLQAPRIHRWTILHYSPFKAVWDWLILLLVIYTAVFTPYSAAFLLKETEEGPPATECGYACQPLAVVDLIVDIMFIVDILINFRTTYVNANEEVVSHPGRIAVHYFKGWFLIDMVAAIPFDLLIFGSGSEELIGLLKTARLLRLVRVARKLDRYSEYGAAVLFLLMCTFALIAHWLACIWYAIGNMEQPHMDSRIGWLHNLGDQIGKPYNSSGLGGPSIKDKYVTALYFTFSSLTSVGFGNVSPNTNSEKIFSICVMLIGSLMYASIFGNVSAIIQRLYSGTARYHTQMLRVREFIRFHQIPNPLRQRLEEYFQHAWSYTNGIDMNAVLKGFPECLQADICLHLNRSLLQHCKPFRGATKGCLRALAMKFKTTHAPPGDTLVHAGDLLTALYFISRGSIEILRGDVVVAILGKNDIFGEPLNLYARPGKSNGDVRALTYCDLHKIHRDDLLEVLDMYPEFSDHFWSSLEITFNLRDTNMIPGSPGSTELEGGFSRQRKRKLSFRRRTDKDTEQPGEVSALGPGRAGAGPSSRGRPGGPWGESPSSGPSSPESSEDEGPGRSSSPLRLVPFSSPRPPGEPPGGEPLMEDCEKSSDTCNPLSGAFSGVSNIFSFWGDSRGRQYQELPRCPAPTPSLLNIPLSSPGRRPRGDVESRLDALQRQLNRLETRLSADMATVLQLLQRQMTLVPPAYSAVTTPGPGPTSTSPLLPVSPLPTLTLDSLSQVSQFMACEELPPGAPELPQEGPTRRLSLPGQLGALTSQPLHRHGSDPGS

The assay addresses human ether-à-go-go-related gene (hERG) potassium channel (human, UniProt Q12809). Briefly: primary screen, population patch clamp on CHO cells stably expressing hERG.
Regarding `Cc1c(C(=O)N2CCC(C)CC2)sc2ncn(CC(=O)N3CCC(C)CC3)c(=O)c12`, the “hERG current change (%, negative = inhibition) at 10uM” value is 0.105%.

On to `Cc1cc([N+](=O)[O-])c(Cl)cc1NC(=O)C(C)C`, for which the “hERG current change (%, negative = inhibition) at 10uM” value amounted to 2.72%.

For the compound `CC1Cc2ccccc2N1C(=O)CSc1nncn1C` (stereo not shown), the “hERG current change (%, negative = inhibition) at 10uM” value is on record as 12.8%.

For the compound `O=C(Nc1cccc(F)c1)c1cc(-c2ccco2)nc2ccccc12`, the “hERG current change (%, negative = inhibition) at 10uM” value is reported as 9.26%.

Regarding `COc1ccccc1N(CC(=O)NCC1CCCO1)C(=O)CCC(=O)Nc1nccs1` (stereo not shown), the “hERG current change (%, negative = inhibition) at 10uM” value came out at 4.95%.

With `CCCC(C(=O)NC1CCCC1)N(C(=O)Cn1nnc(-c2ccc(C)o2)n1)c1ccccc1OC` (stereo not shown), the “hERG current change (%, negative = inhibition) at 10uM” value is given as -19.6%.

Consider `COc1ccc(C(OCC(O)CNCCc2ccc(S(N)(=O)=O)cc2)c2ccc(OC)cc2)cc1` (stereo not shown), for which the “hERG current change (%, negative = inhibition) at 10uM” value is on record as -43.2%.

Take `Cc1cc(C)cc(N2CC(C)(C)C2=O)c1`: the “hERG current change (%, negative = inhibition) at 10uM” value came to 3.97%.

Take `O=C(Cc1cccc(NC(=O)C2CCN(C(=O)C3CCC3)CC2)c1)Nc1cccc(C(=O)N2CCCC2)c1`: the “hERG current change (%, negative = inhibition) at 10uM” value is recorded as 1.66%.

`CN(C)N1C(N)=C(C#N)C(c2ccccc2)C2=C1CC(C)(C)CC2=O` (stereo not shown): the “hERG current change (%, negative = inhibition) at 10uM” value was found to be 2.33%.

Regarding `O=c1c2cc(N3CCOCC3)ccc2[nH]c(=S)n1Cc1ccc(Cl)cc1`, the “hERG current change (%, negative = inhibition) at 10uM” value was -6.97%.

For `COC(=O)C1=C(N)Oc2cc(C)n(CCCn3ccnc3)c(=O)c2C1c1cccc(Cl)c1` (stereo not shown), the “hERG current change (%, negative = inhibition) at 10uM” value is on record as -69.7%.

As to `Cc1cnc(NC(=O)CSc2nnc(COc3ccccc3)o2)s1`, the “hERG current change (%, negative = inhibition) at 10uM” value worked out at 2.23%.

Consider `Cc1nn(C)c(C)c1NC(=O)CSc1nc(Cc2ccccc2)nc2c1cnn2-c1ccccc1`, for which the “hERG current change (%, negative = inhibition) at 10uM” value was 13.2%.

For `c1ccc(CN2CCN(c3cnc4ccccc4n3)CC2)cc1`, the “hERG current change (%, negative = inhibition) at 10uM” value is given as -19.6%.

`COc1cc(OC)c(NC(=O)c2sc3ncn(CC(=O)N4CCN(c5ccccn5)CC4)c(=O)c3c2C)cc1Cl`: the “hERG current change (%, negative = inhibition) at 10uM” value is -2.27%.

With `Brc1ccccc1-c1nnc(COc2ncnc3c2cnn3-c2ccccc2)o1`, the “hERG current change (%, negative = inhibition) at 10uM” value is listed as 7.27%.

Consider `CCOCC(=O)Nc1c(C(=O)OCC)oc2ccccc12`, for which the “hERG current change (%, negative = inhibition) at 10uM” value is recorded as -11.1%.

For the compound `COc1ccc(C(C)=O)cc1COC(=O)c1ccc(S(=O)(=O)N(C)C)cc1`, the “hERG current change (%, negative = inhibition) at 10uM” value is reported as -2.42%.

For the compound `Cc1cccc(Nc2nc3c(s2)CCCC3)c1`, the “hERG current change (%, negative = inhibition) at 10uM” value is recorded as -8.11%.

Consider `COc1cc(C(C(=O)NC2CCCCC2)N(C(=O)c2snc(C(N)=O)c2N)c2ccc(C)cc2)ccc1O` (stereo not shown), for which the “hERG current change (%, negative = inhibition) at 10uM” value stood at 2.2%.

For `CCCCN(C)C(=O)C1CCC(CNS(=O)(=O)c2ccc3c(c2)CC(C)N3C(=O)C2CC2)CC1` (stereo not shown), the “hERG current change (%, negative = inhibition) at 10uM” value is reported as -9.69%.

For the compound `Cc1cc(NC(=O)c2ccc(Cl)cc2)ccc1NC(=O)c1ccccc1Cl`, the “hERG current change (%, negative = inhibition) at 10uM” value turned out to be 9.97%.

In the case of `c1cncc(-c2ccnc3ncnn23)c1`, the “hERG current change (%, negative = inhibition) at 10uM” value was -4.79%.

As for `O=C(O)c1ccc(CSc2nnc(-c3cccnc3)n2-c2ccc(Br)cc2)cc1`, the “hERG current change (%, negative = inhibition) at 10uM” value worked out at 15.1%.

With `NS(=O)(=O)c1ccc(CCNC(=O)CCCn2c(SCC(=O)N3CCCC3)nc3ccsc3c2=O)cc1`, the “hERG current change (%, negative = inhibition) at 10uM” value is listed as -4.32%.

Turning to `CCOC(=O)c1cc(-c2cccc([N+](=O)[O-])c2)nc2[nH]c(=O)[nH]c(=O)c12`, the “hERG current change (%, negative = inhibition) at 10uM” value is on record as -15.7%.

As to `COCCCN(C(=O)CCOc1ccc(C)cc1)c1c(N)n(Cc2ccccc2)c(=O)[nH]c1=O`, the “hERG current change (%, negative = inhibition) at 10uM” value was -20.2%.

Consider `CCN(CC)CCOC(=O)C1(c2ccccc2)CCCC1.Cl`, for which the “hERG current change (%, negative = inhibition) at 10uM” value is -4.03%.

Consider `CCC1CCc2sc(C(=O)N3CCCN(C)CC3)cc2C1` (stereo not shown), for which the “hERG current change (%, negative = inhibition) at 10uM” value was -12.9%.

`COc1ccccc1-c1noc(-c2ccco2)n1`: the “hERG current change (%, negative = inhibition) at 10uM” value is on record as -0.686%.

With `S=C1NCCOCCOCCOCCOCCNC(=S)NCCOCCOCCOCCOCCN1`, the “hERG current change (%, negative = inhibition) at 10uM” value is given as 0.341%.

Take `CCOc1ccc(/C=C/C(=O)N(CC)CC(=O)Nc2ccc3c(c2)OCCO3)cc1OCC`: the “hERG current change (%, negative = inhibition) at 10uM” value is recorded as -2.6%.

As to `COC(=O)c1c(C(C)=O)cnc2ccc(Br)cc12`, the “hERG current change (%, negative = inhibition) at 10uM” value is -1.23%.

As to `CN1CCc2c(sc(NC(=O)c3ccc(S(=O)(=O)N4CCOCC4)cc3)c2C(N)=O)C1`, the “hERG current change (%, negative = inhibition) at 10uM” value was -1.12%.

For the compound `c1ccc2[nH]c(SCCN3CCOCC3)nc2c1`, the “hERG current change (%, negative = inhibition) at 10uM” value is reported as -0.944%.

As for `CN1CCC(OC(=O)C2c3ccccc3Oc3ccccc32)CC1.Cl`, the “hERG current change (%, negative = inhibition) at 10uM” value is listed as -11.4%.

For the compound `N#Cc1ccccc1CSc1nnc(Cc2ccccc2)o1`, the “hERG current change (%, negative = inhibition) at 10uM” value is 3.77%.

For the compound `CCOC(=O)c1c(NC(=O)CSc2nnnn2C)sc(CC)c1C`, the “hERG current change (%, negative = inhibition) at 10uM” value is recorded as -7.7%.

For the compound `O=C(COc1ccc(S(=O)(=O)N2CCOCC2)cc1)NCc1ccco1`, the “hERG current change (%, negative = inhibition) at 10uM” value was determined as 6.51%.

With `COCCOc1ccc(C(F)(F)F)cc1Nc1nc2ccccc2o1`, the “hERG current change (%, negative = inhibition) at 10uM” value was 1.14%.

As to `Cc1ccc(C)n1-c1nn(S(=O)(=O)c2ccccc2)c2cccc(F)c12`, the “hERG current change (%, negative = inhibition) at 10uM” value is 12.9%.

For `COc1ccc(OC)c(NC(=O)CN(c2ccc(C)cc2)S(=O)(=O)c2c(C)n[nH]c2C)c1`, the “hERG current change (%, negative = inhibition) at 10uM” value stood at 12.8%.

For `Cc1cc(C)n(-c2nncn2/N=C/c2ccccc2F)n1`, the “hERG current change (%, negative = inhibition) at 10uM” value came to 3.06%.

Turning to `CCC1Oc2ccccc2N(CC(=O)NCCc2ccc(OC)c(OC)c2)C1=O` (stereo not shown), the “hERG current change (%, negative = inhibition) at 10uM” value is -0.0515%.

Consider `COc1ccc(NC(=O)NC2CCCCCCC2)cc1OC`, for which the “hERG current change (%, negative = inhibition) at 10uM” value was 3.21%.

As for `O=C(C1CCN(Cc2ccccc2)CC1)N1CCN(C/C=C/c2ccccc2)CC1.O=C(O)C(=O)O`, the “hERG current change (%, negative = inhibition) at 10uM” value is -33.3%.

For `C/C(=N\Nc1ccccn1)c1ccc(C#N)cc1`, the “hERG current change (%, negative = inhibition) at 10uM” value was -19.3%.

In the case of `CC1CCN(C(=S)NC(=O)C2CCCCC2)CC1`, the “hERG current change (%, negative = inhibition) at 10uM” value came to 10.2%.

Turning to `Cn1c(=O)cc(SCC(=O)NCC2CCCO2)c2ccccc21` (stereo not shown), the “hERG current change (%, negative = inhibition) at 10uM” value came out at 6.34%.

As for `COc1ccc(-c2nc3c4ccccc4ccn3c2CN2CCCCC2)cc1`, the “hERG current change (%, negative = inhibition) at 10uM” value was -22.1%.

Take `CCN=C(N/N=C/c1ccc([N+](=O)[O-])cc1)SC.I`: the “hERG current change (%, negative = inhibition) at 10uM” value is recorded as -20.3%.

As to `C#CCSc1nsc(SCC#C)c1C#N`, the “hERG current change (%, negative = inhibition) at 10uM” value was determined as 11.2%.

With `CC(C)(C)c1ccc(Cn2nnc3c(=O)[nH]c(C4CCCN(C(=O)c5cccs5)C4)nc32)cc1` (stereo not shown), the “hERG current change (%, negative = inhibition) at 10uM” value was -0.278%.

As to `CCOC(=O)C(/C=C(\C#N)C(=O)OCC)=C(/N)N1CCN(c2ccccc2)CC1`, the “hERG current change (%, negative = inhibition) at 10uM” value amounted to 15.6%.

(Values after article PMC4336329 (PLoS ONE, 2015).)
